{"source": "the supplement of paper PMC10441789", "note": "Some of the results follow. Antibody binding of pooled human sera (four to six donors per pool; dilution not stated) to peptides of the Trypanosoma cruzi antigen TSSA on microarrays. Quantile-normalised fluorescence in arbitrary units, mean of duplicate arrays; higher = more binding. No active / inactive call. The uninfected pools are read here as the healthy donors of the same country. The strongest signals lie near the top of the scale (about 60,000)."}
{"system": "pooled sera of uninfected people, Colombia", "experiment": "antibody binding signal (normalised fluorescence) (arbitrary fluorescence units); higher = stronger serum antibody binding to peptide", "protocol": "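Microarray of 15-residue peptides over residues 30-55 of Trypanosoma cruzi TSSAII, each with 1 to 10 substitutions at naturally variable positions, probed with one serum pool per country.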"}
{"sequence": "GKDNKPATGETPSPP", "antibody binding signal": 282}
{"sequence": "GKEKKTAAGETPSQP", "antibody binding signal": 266}
{"sequence": "EKKPAAGEAPSQPGA", "antibody binding signal": 160}
{"sequence": "KDNKPATGGAPSQPG", "antibody binding signal": 173}
{"sequence": "GKDNKAATGEAPSQP", "antibody binding signal": 315}
{"sequence": "DNKTAAGGAPSPSGA", "antibody binding signal": 301}
{"sequence": "PSGTDNKTATGETPS", "antibody binding signal": 280}
{"sequence": "TDKKAATGGAPSPPG", "antibody binding signal": 764}
{"sequence": "PSGTEKKAATGEAPS", "antibody binding signal": 816}
{"sequence": "TISTPPSGKDKKTAA", "antibody binding signal": 153}
{"sequence": "DKKAATGETPSQPGA", "antibody binding signal": 643}
{"sequence": "KTAAGGAPSPSGASS", "antibody binding signal": 111}
{"sequence": "EKKAATGGAPSPPGA", "antibody binding signal": 979}
{"sequence": "DNKAAAGEAPSPPGA", "antibody binding signal": 136}
{"sequence": "TDKKPAAGGTPSPSG", "antibody binding signal": 251}
{"sequence": "SGTDKKPATGGTPSP", "antibody binding signal": 503}
{"sequence": "GTDKKTAAGETPSQS", "antibody binding signal": 664}
{"sequence": "TEKKTAAGGTPSQPG", "antibody binding signal": 492}
{"sequence": "KDKKAAAGEAPSPSG", "antibody binding signal": 103}
{"sequence": "SGTEKKPATGEAPSP", "antibody binding signal": 310}
{"sequence": "SGKENKAATGGTPSP", "antibody binding signal": 336}
{"sequence": "KEKKTAAGGAPSQPG", "antibody binding signal": 189}
{"sequence": "GKDNKTAAGEAPSPP", "antibody binding signal": 307}
{"sequence": "GTDNKPAAGGTPSPS", "antibody binding signal": 732}
{"sequence": "SGTENKAAAGETPSP", "antibody binding signal": 114}
{"sequence": "PSGTEKKTATGEAPS", "antibody binding signal": 211}
{"sequence": "EKKPAAGETPSQSGA", "antibody binding signal": 493}
{"sequence": "GTENKAATGGAPSQS", "antibody binding signal": 226}
{"sequence": "GTDKKAATGETPSQS", "antibody binding signal": 623}
{"sequence": "TSSTPPSGTENKTAT", "antibody binding signal": 631}
{"sequence": "GTEKKPATGGAPSQS", "antibody binding signal": 185}
{"sequence": "TDKKPAAGGAPSPPG", "antibody binding signal": 116}
{"sequence": "DNKPAAGEAPSPSGA", "antibody binding signal": 149}
{"sequence": "GTEKKTAAGGTPSPS", "antibody binding signal": 325}
{"sequence": "TEKKPAAGETPSPSG", "antibody binding signal": 178}
{"sequence": "EKKPATGGAPSPSGA", "antibody binding signal": 221}
{"sequence": "KDKKTAAGGTPSPPG", "antibody binding signal": 143}
{"sequence": "SGTDNKPATGGAPSP", "antibody binding signal": 290}
{"sequence": "SGKENKTAAGETPSQ", "antibody binding signal": 592}
{"sequence": "GKEKKPAAGEAPSQS", "antibody binding signal": 75.9}
